{"source": "PubChem BioAssay AID1345082", "about": "(National Center for Advancing Translational Sciences (NCATS), 2018)", "note": "Several values for one entry are separate records, joined by “and”; a condition that tells them apart may be missing. Equal values may be shown once. About 4,000 (4.3%) of roughly 94,000 compounds were called active. The shares of active, inactive and inconclusive entries below differ from those in the screen. The call rests on the fitted dose curve; in most records, active means well fitted inhibition curve with a large enough effect; inconclusive means small, poorly fitted or top-dose-only effect; inactive means no such curve, though single readings can be large or run the other way. Potencies of inconclusive entries are doubtful fits and often do not repeat.", "data": [{"experiment": "Cytotoxic Profiling in NIH 3T3 Cell Line of Diverse Libraries Using Quantitative High-Throughput Screening; further: nearly all actives have a fitted effect of over 55% in size; further: potency means the concentration at half of the fitted maximal effect; tags describe the fitted curve by direction and shape", "settings": "NIH 3T3 viability, CellTiter-Glo ATP luminescence, 48-72 h; series mostly up to 96.7 µM", "method_in_brief": "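Viability of NIH 3T3 cells after 48 or 72 hr compound treatment at 37 °C was assessed by CellTiter-Glo, with luminescence imaged following a 10 min room-temperature step.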", "values": [{"molecule": "COc1ccc(CCN2Cc3cc(NC(=O)c4ccccc4)ccc3OC(C)C2=O)cc1", "note": "(stereo unspecified)", "Potency": "inconclusive: 44.7 µM [inhibitor, partial curve, poor fit]"}, {"molecule": "CN(C)C(=O)c1cccc2c1CCN2C(=O)c1ccc(F)cc1", "Potency": "inactive"}, {"molecule": "O=C(c1nc(-c2ccc(Cl)cc2Cl)c2ccccn12)N1CCOCC1", "Potency": "inactive"}, {"molecule": "Cc1ccc([S+](=O)([O-])N2CCCN(c3ccc4nnc(C5CC5)n4n3)CC2)cc1", "Potency": "inconclusive: 50.1 µM [inhibitor, partial curve, poor fit]"}, {"molecule": "COc1ccccc1Cn1c(-c2cccc(Cl)c2)nc(C)c(CCO)c1=O", "Potency": "inconclusive: 50.1 µM [inhibitor, partial curve, poor fit]"}, {"molecule": "CN(C)c1ccc(CN[C@H]2CO[C@H]3[C@@H]2OC[C@@H]3n2cc(CC3CCCCC3)nn2)cc1", "Potency": "inconclusive: 89.1 µM [inhibitor, partial curve]"}, {"molecule": "COc1ccc(C(=O)N2CCC3(CC2)CC(=O)c2ccc(Cl)cc2O3)cc1", "Potency": "inconclusive: 44.7 µM [inhibitor, partial curve, poor fit]"}, {"molecule": "COc1ccccc1C(=O)N1CCC(N2Cc3cnc(C)n3C2=O)CC1", "Potency": "inconclusive: 44.7 µM [inhibitor, partial curve, poor fit]"}, {"molecule": "Cc1csc(NC(=O)c2ccc3c(c2)OCC(=O)N(C)C3)n1", "Potency": "inconclusive: 79.4 µM [inhibitor, partial curve]"}, {"molecule": "N#Cc1ccc(CN2CCC(c3nc4ccncc4[nH]3)C2)cc1", "note": "(stereo unspecified)", "Potency": "inactive and inconclusive: 50.1 µM [inhibitor, partial curve, poor fit]"}, {"molecule": "CN(C)C(=O)c1ccnc(-c2nnc3ccc(Nc4ccc(F)c(Cl)c4)nn23)c1", "Potency": "inconclusive: 31.6 µM [inhibitor, full curve]"}, {"molecule": "COCCN1CCCCCC(O)c2cc(C(=O)NCCCN3CCCc4ccccc43)ccc21", "note": "(stereo unspecified)", "Potency": "inconclusive: 44.7 µM [inhibitor, partial curve]"}, {"molecule": "CC(NC(=O)CCc1ccccc1)C(=O)N1CCN(c2ccccn2)CC1", "note": "(stereo unspecified)", "Potency": "inconclusive: 39.8 µM [inhibitor, partial curve]"}, {"molecule": "COc1ccccc1-c1ncc(CNc2cc(C3CC(O)C3)ncn2)s1", "note": "(stereo unspecified)", "Potency": "inactive"}, {"molecule": "CCOC(=O)[C@H]1C[C@]2(CCCCN(C)C2=O)N(C(=O)c2cccs2)[C@H]1c1ccco1", "Potency": "inconclusive: 56.2 µM [inhibitor, partial curve, poor fit]"}, {"molecule": "CS(=O)(=O)N1CCCN(C(=O)CCc2c[nH]c3ccccc23)CCNC(=O)CC1c1ccccc1", "note": "(stereo unspecified)", "Potency": "inactive"}, {"molecule": "COCCn1c(C)nnc1-c1cc(-c2cccc(OC(F)(F)F)c2)ccn1", "Potency": "inconclusive: 50.1 µM [inhibitor, partial curve, poor fit]"}, {"molecule": "O=C(c1ccccn1)N1CCC(Cc2ccc(COc3ccncc3)cc2)CC1", "Potency": "active: 25.1 µM"}, {"molecule": "C=CCNC(=O)CCc1c(C)nn(-c2ccccc2)c1Oc1ccccc1", "Potency": "inconclusive: 50.1 µM [inhibitor, partial curve, poor fit]"}, {"molecule": "Cc1nc2scc(CC(=O)N3CCOCC3)n2c(=O)c1-c1cc(C)n(-c2ccc(C(C)C)cc2)n1", "Potency": "inactive"}, {"molecule": "O=C(Cc1cccnc1)N1CCC(N2CC(OCC3CC3)C23CCOCC3)CC1", "note": "(stereo unspecified)", "Potency": "inactive"}, {"molecule": "CCN(CC)C(CNc1nc(CCN)nc2ccccc12)c1ccco1", "note": "(stereo unspecified)", "Potency": "inconclusive: 89.1 µM [inhibitor, single point]"}, {"molecule": "NC(=O)[C@H](CC1CCCCC1)NC(=O)[C@@H]1CN(S(=O)(=O)c2ccccc2)CCN1C(=O)c1cccs1", "Potency": "active: 25.1 µM"}, {"molecule": "COc1ccc(C(=O)NCCc2noc(-c3ccccc3)n2)cc1F", "Potency": "inconclusive: 70.8 µM [inhibitor, single point]"}, {"molecule": "Cc1noc(C)c1-c1cc2c(cc(C)n2C)c(-c2cccnc2)n1", "Potency": "inconclusive: 50.1 µM [inhibitor, partial curve, poor fit]"}, {"molecule": "CCN(CC)C(=O)Cc1cccn1-c1ccc(Cl)cc1", "Potency": "inconclusive: 50.1 µM [inhibitor, partial curve, poor fit]"}, {"molecule": "COc1ccc2c(c1)C=C(CN1CCCC(O)(CN(C)C)C1)CO2", "note": "(stereo unspecified)", "Potency": "inactive"}, {"molecule": "COc1cccc(-c2cc3c(=O)n(CCNC(=O)c4cc(F)ccc4F)ccn3n2)c1", "Potency": "inconclusive: 50.1 µM [inhibitor, partial curve, poor fit]"}, {"molecule": "COc1ccccc1OCCCN1CC[C@@](C)(O)[C@@H](O)C1", "Potency": "inactive"}, {"molecule": "NC(=O)CNC(=O)C1=C[C@@H](NC(=O)Cc2cccs2)[C@@H](O)[C@H](O)C1", "Potency": "inactive"}, {"molecule": "CNC(=O)c1cc(C)nc2onc(C3CCN(C(=O)COC)C3)c12", "note": "(stereo unspecified)", "Potency": "inactive"}, {"molecule": "NC(=O)Cc1c[nH]c2ncc(-c3cccc(OC(F)(F)F)c3)cc12", "Potency": "inconclusive: 50.1 µM [inhibitor, partial curve, poor fit]"}, {"molecule": "COc1cccc(C2C(C(=O)Nc3ccccc3)=C(C)N=C3SC=C(CC(=O)NCC(C)C)N32)c1", "note": "(stereo unspecified)", "Potency": "inconclusive: 50.1 µM [inhibitor, partial curve, poor fit]"}, {"molecule": "Cn1nc(C(=O)Nc2cccc(-c3nnc4n3CCCC4)c2)c2ccccc21", "Potency": "inconclusive: 50.1 µM [inhibitor, partial curve, poor fit]"}, {"molecule": "CCn1cc(S(=O)(=O)N2CCC(CCc3nc(C4CCOCC4)no3)CC2)cn1", "Potency": "inconclusive: 44.7 µM [inhibitor, partial curve, poor fit]"}, {"molecule": "CN(C)c1nc(-c2ccncc2)nc2c1CCN(C(=O)c1cc(=O)[nH]c(=O)[nH]1)C2", "Potency": "inactive"}, {"molecule": "O=C(c1ccc(-c2ccccc2CO)nc1)N1CCC(CCc2ccccc2)CC1", "Potency": "inconclusive: 50.1 µM [inhibitor, partial curve, poor fit]"}, {"molecule": "Cc1ccc(CNC(=O)c2ccc3c(c2)CN(Cc2scnc2C)CCO3)cc1", "Potency": "inconclusive: 44.7 µM [inhibitor, partial curve, poor fit]"}, {"molecule": "COc1ccc(CN2CC[C@H](c3nc4ccc(OC)cc4[nH]3)C2)cc1", "Potency": "inconclusive: 100 µM [inhibitor, partial curve, poor fit]"}, {"molecule": "CN(C)C(=O)c1cccnc1OC1CCN(C(=O)c2cccc(F)c2)C1", "note": "(stereo unspecified)", "Potency": "inactive"}, {"molecule": "CC(C)c1ccc(CN2CCCC3(CCN(c4ncccc4C(N)=O)C3)C2)cc1", "note": "(stereo unspecified)", "Potency": "inconclusive: 56.2 µM [inhibitor, partial curve, poor fit]"}, {"molecule": "COc1ncccc1-c1cnc2[nH]cc(CC(=O)NCc3ccco3)c2c1", "Potency": "inconclusive: 44.7 µM [inhibitor, partial curve, poor fit]"}, {"molecule": "O=C(N[C@H]1CCCNC1=O)C1=C[C@@H](NC(=O)c2cccnc2)[C@@H](O)[C@H](O)C1", "Potency": "inactive"}, {"molecule": "O=C1Nc2ccccc2C12CN(CC1CCCCC1)C2", "Potency": "inactive"}, {"molecule": "CCCNC(=O)C(NC(=O)c1cccc(OC)c1)C1CCN(C(=O)c2cccc(F)c2)CC1", "note": "(stereo unspecified)", "Potency": "inconclusive: 50.1 µM [inhibitor, partial curve, poor fit]"}, {"molecule": "COc1cccc(S(=O)(=O)N2CC(n3cc(C(=O)NCC4CC4)nn3)C2)c1", "Potency": "inactive"}, {"molecule": "CCN(CC)Cc1cnc2c(C(=O)N3CCC(N4CCCC4)CC3)cnn2c1", "Potency": "inactive"}, {"molecule": "COc1ccccc1CC(=O)N1CCCc2ncc(C(=O)Nc3nc(C)cs3)cc21", "Potency": "inconclusive: 89.1 µM [inhibitor, partial curve, poor fit]"}, {"molecule": "OC(COc1ccccc1CNC1(c2ccccc2)CC1)CN1CCCCC1", "note": "(stereo unspecified)", "Potency": "inconclusive: 89.1 µM [inhibitor, single point]"}, {"molecule": "CC(C)(C)c1coc([C@@H]2COCCN2Cc2cnc3ccccc3c2)n1", "Potency": "inconclusive: 44.7 µM [inhibitor, full curve]"}, {"molecule": "C#CCNC(=O)c1nc2cccnc2n(C2CC2)c1=O", "Potency": "inactive"}, {"molecule": "O=C(NC[C@H]1OC[C@@H](NC2CCCCC2)[C@@H]1O)c1ccc(F)cc1", "Potency": "inactive"}, {"molecule": "CC(C)CN1CC[C@H](c2nc3c(C(N)=O)cccc3[nH]2)C1", "Potency": "inconclusive: 126 µM [inhibitor, partial curve, poor fit]"}, {"molecule": "COc1ccccc1NC(=O)C1CN(C2CCCC2)C(=O)N1", "note": "(stereo unspecified)", "Potency": "inactive"}, {"molecule": "CC(C)CCNC(=O)C1CCN(C(=O)c2ncn3c2COC(c2ccc(F)cc2)C3)CC1", "note": "(stereo unspecified)", "Potency": "inactive"}, {"molecule": "O=C(N1CC(Oc2ccc(-c3noc(-c4ccccc4)n3)cc2)C1)C1(c2ccccc2)CC1", "Potency": "inactive"}, {"molecule": "N#Cc1cccc(CN2CC(CNc3ccccc3)C3(C2)CN(c2ccccc2)C3)c1", "note": "(stereo unspecified)", "Potency": "inactive"}, {"molecule": "Cc1cccc(-n2nc(CC(N)=O)nc2Cn2cc(C)c(=O)[nH]c2=O)c1C", "Potency": "inactive"}, {"molecule": "COc1ccc(C(=O)NC2CCN(Cc3ccc(-c4ccsc4)cc3)C2)cc1", "note": "(stereo unspecified)", "Potency": "inconclusive: 31.6 µM [inhibitor, partial curve]"}, {"molecule": "COc1cc(OC)cc(C(=O)N2CCC(Cc3nc(-c4ccc(F)cc4)no3)CC2)c1", "Potency": "inconclusive: 25.1 µM [inhibitor, partial curve]"}, {"molecule": "CC(C)NC(=O)C(C)[C@@H]1CC[C@@]2(C)CC[C@H](NC(=O)C3CC3)[C@@H](C)[C@@H]2[C@H]1O", "note": "(stereo partly specified)", "Potency": "inconclusive: 126 µM [inhibitor, single point]"}, {"molecule": "CCC1c2nccn2CCCN1C(=O)c1cc(C)n(CCCOC)c1C", "note": "(stereo unspecified)", "Potency": "inactive"}, {"molecule": "O=C(C1CC1)N1CCC(C(=O)N2CCC(c3ccccc3)CC2)CC1", "Potency": "inconclusive: 112 µM [inhibitor, partial curve, poor fit]"}, {"molecule": "c1cc(-c2noc([C@@H]3Cc4nc[nH]c4CN3CC3CCCCC3)n2)ccn1", "Potency": "active: 79.4 µM"}, {"molecule": "CN1Cc2cccn2CC1CNC(=O)c1ccccc1", "note": "(stereo unspecified)", "Potency": "inactive"}, {"molecule": "CCc1ccc(N2CC(c3noc(C4(c5ccc(OC)cc5)CC4)n3)CC2=O)cc1", "note": "(stereo unspecified)", "Potency": "inconclusive: 50.1 µM [inhibitor, partial curve, poor fit]"}]}]}
